Source: publication PMC4336329 (PLoS ONE, 2015)
Out of some 310,000 compounds screened, about 2,200 (0.71%) showed an effect of 50% or more. Effects have a minus sign here. This is one part of the list.

Molecular target: human ether-à-go-go-related gene (hERG) potassium channel (human, UniProt Q12809)
Assay: primary screen, population patch clamp on CHO cells stably expressing hERG

Sequence of human ether-à-go-go-related gene (hERG) potassium channel (Q12809 whole entry, looked up): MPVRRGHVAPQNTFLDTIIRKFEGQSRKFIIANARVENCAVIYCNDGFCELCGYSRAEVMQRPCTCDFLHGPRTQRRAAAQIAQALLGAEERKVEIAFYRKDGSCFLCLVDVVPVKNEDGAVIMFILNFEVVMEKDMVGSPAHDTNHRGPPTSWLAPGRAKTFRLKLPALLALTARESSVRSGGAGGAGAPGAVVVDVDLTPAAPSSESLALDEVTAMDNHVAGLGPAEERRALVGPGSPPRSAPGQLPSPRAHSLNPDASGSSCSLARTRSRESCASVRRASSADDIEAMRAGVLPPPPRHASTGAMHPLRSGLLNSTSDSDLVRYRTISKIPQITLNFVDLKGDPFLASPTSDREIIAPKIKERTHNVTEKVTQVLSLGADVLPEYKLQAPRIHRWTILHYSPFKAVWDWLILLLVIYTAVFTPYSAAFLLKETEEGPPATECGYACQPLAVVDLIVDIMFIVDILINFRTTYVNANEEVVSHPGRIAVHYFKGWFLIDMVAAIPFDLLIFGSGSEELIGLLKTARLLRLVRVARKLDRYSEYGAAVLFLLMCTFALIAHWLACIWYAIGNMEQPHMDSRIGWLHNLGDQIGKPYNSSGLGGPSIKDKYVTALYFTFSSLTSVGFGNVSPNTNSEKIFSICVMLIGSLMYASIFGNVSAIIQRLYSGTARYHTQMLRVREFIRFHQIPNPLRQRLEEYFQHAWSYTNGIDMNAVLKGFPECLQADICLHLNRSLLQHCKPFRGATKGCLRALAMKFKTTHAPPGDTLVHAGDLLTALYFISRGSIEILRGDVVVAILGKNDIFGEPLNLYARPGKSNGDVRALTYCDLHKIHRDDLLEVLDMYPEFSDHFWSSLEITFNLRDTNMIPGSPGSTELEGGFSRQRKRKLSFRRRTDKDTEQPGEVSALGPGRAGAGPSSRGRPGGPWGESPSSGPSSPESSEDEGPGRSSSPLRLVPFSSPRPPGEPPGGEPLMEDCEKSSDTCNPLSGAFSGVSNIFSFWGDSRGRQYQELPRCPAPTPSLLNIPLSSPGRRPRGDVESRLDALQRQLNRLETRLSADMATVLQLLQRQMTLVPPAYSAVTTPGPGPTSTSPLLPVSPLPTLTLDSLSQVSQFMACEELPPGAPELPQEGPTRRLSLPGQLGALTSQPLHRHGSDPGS

SMILES	hERG current change (%, negative = inhibition) at 1uM
CC(Cc1c[nH]c2ccccc12)C(=O)N1CCN(c2ccccc2F)CC1 (stereo not shown)	15.5%
Cc1ccc(S(=O)(=O)NCCN(CCNS(=O)(=O)c2ccc(C)cc2)S(C)(=O)=O)cc1	22.4%
Nc1ncnc2c1ncn2C1OC(CO)C(O)C1O (stereo not shown)	11.8%
COc1ccc(NC(=O)CN(C)C(=O)CNC(=O)c2cccs2)cc1	7.34%
CC(C)Cc1ccc(CN2CCCC(NC(=O)CSc3nncn3C)C2)cc1 (stereo not shown)	12.1%
O=C(Nc1cccc2c1CCCC2)c1ccc(Br)o1	-4.3%
CCCCN(C)C/C(O)=C(\C#N)c1nc(-c2ccccc2)cs1	8.36%
COc1ccc(C2C3=C(CCCC3=O)Nc3c(-c4ccccc4)c(C)nn32)cc1 (stereo not shown)	12.5%
Cc1ccc2cc3c(nc2c1)N(c1ccccc1)CC3	9.32%
COc1ccc(N=C2NN=C(c3ccc4c(c3)OCCO4)CS2)cc1	13.8%
CN(C)S(=O)(=O)c1ccc2c(c1)nc(CCC(=O)Nc1ccc3c(c1)OCO3)n2C	6.1%
Cc1c(NC(=O)C23CC4CC(CC(Br)(C4)C2)C3)c(=O)n(-c2ccccc2)n1C	12.8%
CCOC(=O)C1NN=C(C(=O)c2ccccc2)C1c1ccc(Cl)cc1 (stereo not shown)	4.24%
O=C(NCc1ccccn1)C(=O)NCC(c1ccco1)N1CCOCC1 (stereo not shown)	10.7%
CCOc1ccc(N2C(=O)C3CCCN3C2=O)cc1 (stereo not shown)	16.1%
CCOc1ccc(NS(=O)(=O)c2ccc(C(=O)N(CC)CC(=O)NCc3cccs3)cc2)cc1	6.53%
O=S1(=O)Cc2cc3ccccc3cc2C1	12.4%
N#CCC(=O)Nc1ccc(C(=O)OCC(=O)C23CC4CC(CC(C4)C2)C3)cc1	11.4%
O=C(Cc1cccc2ccccc12)N1CC[C@@]2(O)CCCC[C@H]2C1	12.5%
O=S(=O)(c1ccc(NCCOCCO)nc1)N1CCCCC1	9.8%
COCCN(C(=O)CSCc1ccccc1)c1c(N)n(Cc2ccccc2)c(=O)[nH]c1=O	-0.41%
CCOC(=O)COc1nc(N(C)C)nc(N(C)C)n1	4%

SMILES	hERG current change (%, negative = inhibition) at 1uM
COCCNC(C(=O)Nc1ccc(C)cc1[N+](=O)[O-])c1ccccc1 (stereo not shown)	12.5%
C=C(C)CN1CCN(c2ccc(N3C(=O)CCCC3=O)cc2[N+](=O)[O-])CC1	9.9%
COc1ccc(C(=O)Oc2ccc(-c3nnco3)cc2)cc1S(=O)(=O)N1CCOCC1	6.8%
COc1ccccc1CNC(=O)C1CCN(S(=O)(=O)c2ccc(-n3cnnn3)cc2)CC1	-9.4%
Cc1ccc(C(=O)Nc2ccc(C)c(S(=O)(=O)Nc3ccccc3Cl)c2)s1	0.857%
CCOc1cc(N2CCOCC2)c(OCC)cc1NC(=O)CSc1ncccn1	3.41%
O=[N+]([O-])c1cc(-c2nnc(C34CC5CC(CC(C5)C3)C4)o2)cc([N+](=O)[O-])c1	-5.78%
COCCn1c(SCC(=O)N2CCCc3ccccc32)nnc1-c1ccco1	12.2%
Cc1cc(NC(=O)CN2C(=O)NC(C)(c3ccccc3)C2=O)no1 (stereo not shown)	-15.9%
O=C(O)c1ccc(NC(=O)c2ccccc2Br)c(NC(=O)c2ccccc2Br)c1	13.1%
Cc1ccc(COC(=O)Cc2coc3cc(O)ccc23)cc1	8.06%
O=[N+]([O-])c1ccc(Cl)c(C[n+]2cccc3ccccc32)c1.[Br-]	11.1%
CCN1/C(=C/C=C/c2sc3ccccc3[n+]2CC)Sc2ccccc21.[I-]	-36.8%
COc1ccc(C)cc1S(=O)(=O)Nc1cc2c3c(c1)C(C)C(=O)N3CCC2 (stereo not shown)	-2.09%
C=CCNC(=O)CSc1nc2sccc2c(=O)n1-c1ccccc1	12.5%
COc1ccc(CNCCc2c(C)[nH]c3ccc(OC(F)(F)F)cc23)c(OC)c1.O=C(O)C(=O)O	-6.91%
CS(=O)(=O)N(CC(=O)N1CCN(c2ccccc2)CC1)c1cccc(Br)c1	1.4%
CC(Sc1nnc(-c2ccccc2Br)n1-c1cccc(C(F)(F)F)c1)C(N)=O (stereo not shown)	1.77%
COCOc1ccc(-c2cc(=O)c3c(OCOC)cc(OCOC)cc3o2)cc1	7.39%
O=C(Nc1ccccc1OC(=O)c1ccc(Cl)cc1)c1ccc(Cl)cc1	13.4%
COC(=O)c1cc(N=C(N)N=C(N)N)cc(C(=O)OC)c1	11.1%
CCOc1ncccc1C(=O)Nc1ccc(C(=O)Nc2ccc(OC)cc2)cc1	1.87%

SMILES	hERG current change (%, negative = inhibition) at 1uM
CC1(C)Cc2ccccc2C(=NCC(=O)O)N1	17.9%
CN(C)S(=O)(=O)c1ccc(C(=O)Nc2nnc(SCc3cccc4ccccc34)s2)cc1	1.9%
CCOC(=O)c1cnc(-n2nc(C)cc2C)nc1Oc1ccc(C#N)cc1	18.1%
COc1cccc(NC(=O)COc2ncnc3sc(C)c(C)c23)c1	12.4%
Cc1ccccc1C(=O)NCc1nnc(SCC(=O)N2CCN(c3ccccc3)CC2)n1C	12.3%
CCN(CC(=O)Nc1cc(Cl)ccc1C)C(=O)C1CCCCC1	7.25%
COc1ccccc1C(=O)NNC(=O)c1ccc(NC(=O)c2ccccc2)cc1	9.78%
O=C(N/N=C/c1cccs1)c1cccc2cc[nH]c12	1.17%
CC(=O)c1ccc(COC(=O)c2ccccc2NC(=O)C(C)C)cc1	1.01%
N/C(=N\OC(=O)c1cccc(Br)c1)c1ccncc1	10.3%
Cc1c(Br)c([N+](=O)[O-])nn1CC(=O)Nc1ccc(Cc2ccncc2)cc1	13.6%
COc1ccc(-c2noc(N3CCC(C(=O)NCc4ccc(Cl)cc4)CC3)n2)cc1	17.7%
O=S(=O)(NCCc1csc(-c2cccnc2)n1)c1ccc(Cl)s1	-1.02%
O=C(c1ccc(F)cc1)N1CCOCC1	15.3%
Cc1ccc(-c2ccnc(=S)[nH]2)cc1	13.7%
COc1ccc(N2CCN(C(CNC(=O)C(=O)NCCc3c[nH]c4ccccc34)c3ccco3)CC2)cc1 (stereo not shown)	1.89%
CC(=O)c1cccc(NC(=O)c2ccc3c(c2)CCN3S(=O)(=O)c2ccccc2)c1	14.5%
CCC1Oc2ccccc2N(CC(=O)NCCCN2CCOCC2)C1=O (stereo not shown)	0.93%
Cc1cc(=O)oc(C)c1C(=O)OCC(=O)c1ccccc1	4.96%
Cc1ccc(OCC(=O)NNC(=O)CCC(=O)NCc2ccccc2)cc1	-15.1%
O=C(Cc1ccccc1)Nc1nnc(-c2cccc([N+](=O)[O-])c2)s1	9.05%
CC1CC(C)CN(C(=O)c2cc(S(=O)(=O)N3CCCCC3)ccc2Cl)C1 (stereo not shown)	-5.68%

SMILES	hERG current change (%, negative = inhibition) at 1uM
Nc1c2c(nn1-c1ccccc1)CCC2	11%
Oc1cccc(-c2nc3ccc4ccccc4c3c3c2CCC3)c1	11.8%
CCOc1ccc(Nc2ccc3nonc3c2[N+](=O)[O-])cc1	2.23%
Cc1cccc(OCc2nn[nH]n2)c1C	11.1%
O=C(Nc1ccon1)c1ccc(Br)s1	7.09%
CCN(C(=O)c1cccc(Br)c1)c1ccccc1	6.97%
Cc1occc1-c1nnc(SCC(=O)NC2CCCC2)n1C	13.5%
Nc1ccc(-c2nnc(-c3ccccc3)o2)cc1	10.9%
Cn1c(O)c(N=Nc2cccc(S(=O)(=O)N3CCOCC3)c2)c(=O)n(C)c1=O	7.22%
COc1cccc(N=C2CC(C)(C)CC(=O)/C2=C(/O)c2ccccc2)c1	-0.794%
CCn1c(C)nc2cc(C(=O)NNC(=S)NC(=O)c3ccc(OC)cc3)ccc21	0.14%
C[C@@H]1C(NC(=O)c2ccccc2)CC2CC1C2(C)C (stereo partly shown)	8.79%
C=CCn1c(SCC(=O)Nc2ccccc2)nc2scc(-c3cccs3)c2c1=O	11%
COc1ccc(S(=O)(=O)N(CCN2CCOCC2)Cc2cc(OC)ccc2OC)cc1	10.9%
Cc1ccc(C)c(NC2=C(Cl)C(=O)OC2OC(C)C)c1 (stereo not shown)	8.09%
O=C(C1CCN(S(=O)(=O)N2CCOCC2)CC1)N1CCN(Cc2ccccc2)CC1	-3.78%
O=S(=O)(NCc1ccccc1)c1ccc2c(c1)OCCO2	6.44%
O=S(=O)(c1ccc2c(c1)OCCO2)N1CCN(c2ncnc3sccc23)CC1	-1.71%
Cc1c(C(=O)NCCN(C)C)oc2ccc(S(=O)(=O)N3CCCC3)cc12	8.92%
Cc1ccc(C(O)(c2ccc(C)c(C)c2)C2CN3CCC2CC3)cc1C.Cl (stereo not shown)	-41.2%
Cc1cccc(Nc2nc(N)c([N+](=O)[O-])c(N3CCC(C)CC3)n2)c1	-0.77%
Cc1ccc(NC(=O)c2ccc(N3CCOCC3)c([N+](=O)[O-])c2)cc1S(=O)(=O)N1CCOCC1	-0.421%
